From article PMC4336329 (PLoS ONE, 2015)
About 2,200 (0.71%) of roughly 310,000 compounds showed an effect of 50% or more. The effect is printed as a negative number. The list shows a part of the results.

biological target: human ether-à-go-go-related gene (hERG) potassium channel (human, UniProt Q12809); assay: primary screen, population patch clamp on CHO cells stably expressing hERG
Sequence (Q12809 whole entry, looked up): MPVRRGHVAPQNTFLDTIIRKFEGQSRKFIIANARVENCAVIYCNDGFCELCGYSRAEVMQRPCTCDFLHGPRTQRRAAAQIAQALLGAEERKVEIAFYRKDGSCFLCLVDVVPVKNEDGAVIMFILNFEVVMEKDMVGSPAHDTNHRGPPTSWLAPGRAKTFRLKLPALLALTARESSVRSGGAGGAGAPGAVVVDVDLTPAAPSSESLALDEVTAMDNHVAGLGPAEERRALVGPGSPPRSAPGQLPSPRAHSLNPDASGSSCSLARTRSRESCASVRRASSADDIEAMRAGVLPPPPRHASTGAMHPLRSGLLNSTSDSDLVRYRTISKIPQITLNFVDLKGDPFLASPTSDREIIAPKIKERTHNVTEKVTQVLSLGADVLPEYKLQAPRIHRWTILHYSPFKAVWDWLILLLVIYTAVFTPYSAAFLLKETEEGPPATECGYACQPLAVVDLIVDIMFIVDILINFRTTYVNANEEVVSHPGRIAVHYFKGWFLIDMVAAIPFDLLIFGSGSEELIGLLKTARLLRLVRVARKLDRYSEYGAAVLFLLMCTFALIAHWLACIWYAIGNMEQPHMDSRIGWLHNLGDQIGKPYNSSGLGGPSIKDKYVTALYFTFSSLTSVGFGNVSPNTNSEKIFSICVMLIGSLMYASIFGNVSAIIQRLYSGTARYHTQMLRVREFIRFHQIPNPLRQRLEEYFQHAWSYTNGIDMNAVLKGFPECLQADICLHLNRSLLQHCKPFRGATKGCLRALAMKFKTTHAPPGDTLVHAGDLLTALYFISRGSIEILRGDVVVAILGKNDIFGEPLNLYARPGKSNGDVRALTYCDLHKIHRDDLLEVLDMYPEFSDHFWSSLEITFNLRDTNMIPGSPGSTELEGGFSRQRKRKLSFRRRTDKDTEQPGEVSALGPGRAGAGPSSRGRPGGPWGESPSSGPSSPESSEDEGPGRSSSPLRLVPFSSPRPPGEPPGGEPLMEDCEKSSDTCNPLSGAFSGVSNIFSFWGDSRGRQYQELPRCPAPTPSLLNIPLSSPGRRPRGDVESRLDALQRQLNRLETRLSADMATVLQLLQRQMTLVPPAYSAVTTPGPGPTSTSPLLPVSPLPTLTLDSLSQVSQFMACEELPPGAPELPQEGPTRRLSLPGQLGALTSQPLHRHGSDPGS

Structure (SMILES)	hERG current change (%, negative = inhibition) at 1uM
O=C(NC1=NCCS1)c1ccccc1OCc1ccc(F)cc1	10.2%
CCOC(=O)C1CCCN(C(=O)c2cc(S(=O)(=O)Nc3ccccc3OC)ccc2C)C1 (stereo not shown)	5.22%
O=C(CN1CCN(c2ccc(F)cc2)CC1)N1N=CCC1c1ccccc1 (stereo not shown)	3.98%
Cc1ccc(NC(=O)c2ccc(-n3cncn3)c([N+](=O)[O-])c2)cc1	0.439%
CN(c1ccc(C(=O)NCCCn2ccnc2)cc1)S(C)(=O)=O	11.1%
Cc1ccc(NC(=S)N2CCN(Cc3ccccc3)CC2)cc1	19.3%
CCc1ccc(NC(=O)c2[nH]c(C)c(C(C)=O)c2C)cc1	13.8%
O=C(c1ccc(F)cc1)N1CCN(c2ccc([N+](=O)[O-])cc2-n2cccc2)CC1	-17.6%
CC1CCc2c(sc(NC(=O)CCC(=O)O)c2C(=O)NC2CC2)C1 (stereo not shown)	11.6%
COC(=O)c1ccc(CN(C)S(=O)(=O)c2ccc(C)cc2)o1	4.95%
Cc1ccc(NC(=O)c2cccc(OCc3c(C)noc3C)c2)c(C)c1	2.84%
Cc1cc(C)nc(SCC(=O)N2CCc3ccccc32)n1	11.4%
COc1ccc(C)cc1Nc1nc(-c2c(C)[nH]c3ccccc23)cs1	4.55%
CC(C)c1ccc(OCc2ccc(C(=O)N3CCCC3)o2)cc1	10.6%
OCCNc1nc(N2CCCC2)nc(N2CCCC2)n1	8.4%
CCCCOC(=O)/C(=C\c1ccc([N+](=O)[O-])o1)NC(=O)c1ccccc1	-7.56%
O=C(NNC1=Nc2cccc3cccc1c23)c1ccc(Br)cc1	22.6%
Cc1cccc(C(=O)OCC(=O)Nc2ccccc2C(=O)NC2CC2)c1	1.27%
CN1C2C=C3C(C#N)=C(N)C(C#N)(C#N)[C@@H](c4cccs4)C3C1CC2 (stereo partly shown)	8.42%
Cc1ccc(S(=O)(=O)N2CCN(CCc3ccccc3)CC2)c(C)c1.O=C(O)C(=O)O	7.03%
CS(=O)(=O)N(CCc1ccccc1)CC(=O)NCc1ccncc1	8.15%
COc1ccc(C(=O)Nc2nc(C)c(C)s2)cc1OC	5.7%
C[C@H](NS(=O)(=O)c1ccccc1)C(=O)OCC(=O)NC(=O)Nc1ccc2c(c1)OCCO2	8.95%
COc1ccc(Oc2nc(-c3ccccn3)nc3ccccc23)cc1	10.2%
COc1cc([C@@H]2c3cc4c(cc3[C@@H](O)[C@@H](CO)[C@@H]2CO)OCO4)cc(OC)c1O[Si](C)(C)C(C)(C)C	7.41%
Fc1ccccc1-c1nc(NCc2ccco2)c2ccccc2n1	5.53%
Cc1cc(NC(=O)CN2C(=O)/C(=C/c3ccccc3F)SC2=S)no1	13.8%
O=C(Oc1cccc(NC(=O)c2ccco2)c1)c1cccc(S(=O)(=O)N2CCCC2)c1	-5.08%

Structure (SMILES)	hERG current change (%, negative = inhibition) at 1uM
O=C(NCCCN1CCCC1)c1ccc(CS(=O)(=O)c2ccc(Br)cc2)o1	5.6%
O=C(NN1C(=O)C2C3C=CC(C3)C2C1=O)C(O)c1ccccc1 (stereo not shown)	10.6%
Cc1ccc(C)c(-n2c(-c3ccc4c(c3)OCO4)n[nH]c2=S)c1	3.11%
COc1cc(OC)c(C=O)c(OC(=O)N(C)C)c1	0.963%
CC(C)NC(=O)CCN1C(=O)c2ccccc2Sc2ncccc21	6.59%
c1ccc(-c2ccccc2-c2nc(-c3cccnc3)no2)cc1	12.6%
O=C(Nc1ccc(N2CCCCC2)cc1)c1ccc(F)cc1	10.9%
COC(=O)[C@@H]1C[C@@]2(O)[C@@H](O)[C@@H](O)[C@@H](O)C[C@H]2N1Cc1ccc(C)s1	16.1%
COc1ccc(CCn2nnnc2C(c2ccc(Cl)cc2)N2CCN(C)CC2)cc1OC.Cl (stereo not shown)	8.63%
S=C1N(c2ccccc2)C(c2ccccc2)N2CCCN12 (stereo not shown)	6.76%
Cc1ccccc1CC(=O)NC1CCCCCC1	18.8%
O=C(Nc1ccc(F)cc1F)C1CC(=O)N(Cc2ccccc2)C1 (stereo not shown)	-1.89%
COc1cccc(N(CC(=O)NCCSc2ccccn2)S(=O)(=O)c2ccccc2)c1	7.85%
COCCNC(=O)CN1CCC(NC(=O)C(C)(C)C)CC1	6.11%
Cc1onc(-c2c(Cl)cccc2Cl)c1C(=O)NCc1cccs1	5.69%
O=C(COC(=O)C1=COCCO1)Nc1cccc(Oc2ccccc2)c1	5.05%
CC(C)N1CCN(C(=O)c2cccc(Cl)c2)CC1.O=C(O)C(=O)O	14.6%
Cc1ccccc1N(C(=O)CNC(=O)c1cccs1)C(C(=O)NC1CCCC1)c1ccncc1 (stereo not shown)	2.9%
COC(=O)c1ccc(COC(=O)CNC(=O)CNC(=O)c2ccc(OC)cc2)cc1	3.78%
O=C(CCc1nc2ccccc2c(=O)[nH]1)NC1CCN(Cc2ccccc2)CC1	9.07%
COc1ccc(OC)c(N(CC(=O)Nc2ccc(NC(C)=O)cc2)S(C)(=O)=O)c1	11.6%
CCc1cc(OCCN2C(=O)NC(C)(C)C2=O)ccc1Cl	15.6%
CCOC(=O)c1[nH]c2ccccc2c1NC(=O)c1ccc(Br)o1	-1.99%
CSc1ccccc1NC(=O)CN(C)CC(=O)Nc1ccccc1F.O=C(O)C(=O)O	3.46%
O=[N+]([O-])c1ccc(S(=O)(=O)N2CCN=C2SCc2cccnc2)cc1	-13.7%
Cc1ccc(N/C=C/C(=O)c2sc(-c3ccccc3)nc2C)cc1	10.8%
COc1ccccc1C(=O)Nc1ccc(C(=O)c2ccccc2)cc1	15%
